ChEMBL document CHEMBL4888484, “Replenishing the malaria drug discovery pipeline: Screening and hit evaluation of the MMV Hit Generation Library 1 (HGL1) against asexual blood stage Plasmodium falciparum ,using a nano luciferase reporter read-out” (2022)
The whole screen tested about 150,000 compounds, of which about 540 (0.36%) showed an effect of 50% or more. The list shows a part of the results.

Each compound was assayed on Plasmodium falciparum (assay: Primary screen in NF54 nanoGlo assay, in single point, at 2uM, 72h; a lower Z score goes with more inhibition). Conditions: timepoint 72 hour.
Type: functional, Erythrocyte
For `COC(=O)N(C)CC(=O)Nc1cccc(Cl)c1`, the “% Inhibition” value was -5% and the Z score was 0.77.
With `C[C@H](O)CCN(C)c1ncc(Br)cn1` the “% Inhibition” value was -21% and the Z score was 2.48.
With `COc1cc(NC(=O)CC#N)cc(OC)c1` the “% Inhibition” value was -12% and the Z score was 1.36.
With `CC1(C)CN(S(=O)(=O)NCC(F)(F)F)C[C@]2(C[C@@H]3CC[C@H]2C3)O1` the “% Inhibition” value was 15% and the Z score was -1.7.
In the case of `CCCN(CC(C)(C)c1ccccc1)C(=O)CNC1CC1`, the “% Inhibition” value is reported as 1% and the Z score is reported as -0.24.
`CCc1ccc(C(=O)N[C@@H](C)c2csc(C)n2)[nH]1` was tested, and the “% Inhibition” value was 19% and the Z score was -3.32.
For `Cc1noc(C)c1S(=O)(=O)N[C@H]1Cc2ccccc2NC1=O`, the “% Inhibition” value was -8% and the Z score was 1.07.
`CCc1noc(-c2cnc3nc(C)ccc3c2Nc2cccc(C)c2)n1` was tested, and the “% Inhibition” value was -4% and the Z score was 0.45.
In the case of `Cc1cc(C)n(C)c(=O)c1C(=O)N1CCN(C(=O)[C@@H]2CCCO2)CC1`, the “% Inhibition” value is reported as 5% and the Z score is reported as -0.65.
`O=C(NCCN1CCC(c2cccs2)CC1)NC1CCOCC1` was tested, and the “% Inhibition” value was -5% and the Z score was 0.6.
For `NC(=O)CN1CCCN(C(=O)Nc2cccnc2-n2cccn2)CC1`, the “% Inhibition” value was 12% and the Z score was -1.85.
For `CO[C@H]1CN(C2CCN(C(=O)CC3CCCCC3)CC2)C12CCOCC2`, the “% Inhibition” value was -8% and the Z score was 1.3.
In the case of `O=C(Nc1ccc(F)cc1N1CCOCC1)N1CCCC(F)(F)CC1`, the “% Inhibition” value is reported as 0% and the Z score is reported as 0.02.
`Cc1nc(C)c(-c2cccc(-c3ccn(CCCN(C)C)n3)c2)s1` was tested, and the “% Inhibition” value was -11% and the Z score was 1.23.
For `COc1cccc(-n2c(=O)c3c(C)c(C(=O)N(C)C)sc3n(CC(=O)NC[C@H]3CCCO3)c2=O)c1`, the “% Inhibition” value was 9% and the Z score was -1.06.
With `CC(C)NC(=O)[C@@H]1Cc2[nH]cnc2CN1Cc1ccc(Cl)cc1` the “% Inhibition” value was 12% and the Z score was -1.5.
For `Cc1ccc(CCN2C(=O)[C@H]3CCCCN3C2=O)nc1`, the “% Inhibition” value was -24% and the Z score was 4.56.
In the case of `O=C(Nc1ccc(F)cc1)Nc1nnc(C2CCCC2)s1`, the “% Inhibition” value is reported as 3% and the Z score is reported as -0.36.
In the case of `CC[C@H](NS(=O)(=O)c1ccc(C)c(N(C)C)c1)c1noc(C)n1`, the “% Inhibition” value is reported as -1% and the Z score is reported as 0.19.
In the case of `COc1ccc(CN(C)c2ncccc2-c2nc(-c3ccc(C)cc3)no2)cc1`, the “% Inhibition” value is reported as -6% and the Z score is reported as 0.99.
`CC(=O)Oc1c(-c2ccc(NC(=O)c3ccccc3Cl)cc2)c(-c2cccc(C)c2)nn1-c1ccc(F)cc1` was tested, and the “% Inhibition” value was -5% and the Z score was 0.78.
With `CC(C)c1noc([C@H](C)n2ccnc2-c2cnc(N3CCCC3)nc2)n1` the “% Inhibition” value was -9% and the Z score was 1.33.
With `CC[C@H]1C(=O)NCCN1c1nc(C)cc(N)n1` the “% Inhibition” value was -4% and the Z score was 0.76.
`CC(C)Cc1nc(C(=O)N2CCC[C@@]23CCOC3=O)cs1` was tested, and the “% Inhibition” value was -14% and the Z score was 2.8.
With `CC(C)Cn1cnnc1[C@@H]1CCCN1CCC(=O)N1CCOCC1` the “% Inhibition” value was -6% and the Z score was 1.2.
With `CN(CCC(=O)O)Cc1ccccc1C1CC1` the “% Inhibition” value was -2% and the Z score was 0.39.
For `CNC(=O)c1noc(CNC(=O)Cc2c(F)ccc(F)c2F)n1`, the “% Inhibition” value was 8% and the Z score was -1.17.
With `Cc1cc(NC(=O)CN(C)[C@@H](C)c2sc(C)nc2C)n(C)n1` the “% Inhibition” value was 8% and the Z score was -1.39.
With `Cc1ccc(NS(=O)(=O)c2cc(-c3nnc(C(=O)N4CCCC4)o3)sc2C)cc1C` the “% Inhibition” value was -10% and the Z score was 1.45.
`CCON1CCC(CC(=O)N(C)CCN(C)C2CC2)CC1` was tested, and the “% Inhibition” value was -11% and the Z score was 2.02.
`COCC1(CNC(=O)C[C@H](C)n2ccnc2C)CCC1` was tested, and the “% Inhibition” value was -4% and the Z score was 0.67.
For `O=c1[nH][nH]c2nc(O)cc(C(F)(F)F)c12`, the “% Inhibition” value was -5% and the Z score was 0.55.
With `O=C1NCCOCCN(S(=O)(=O)c2ccccc2)[C@@H]2CCCC[C@H]12` the “% Inhibition” value was 5% and the Z score was -0.95.
For `Cc1nnnn1CCn1nc2ccccn2c1=O`, the “% Inhibition” value was -9% and the Z score was 1.14.
`c1cc(-c2csc(C3CC3)n2)cc(-c2noc(-c3cnccn3)n2)c1` was tested, and the “% Inhibition” value was -12% and the Z score was 1.41.
`Cc1ccc(-c2noc(C3CC3)n2)cc1-n1cc(C(=O)NCc2ccccc2Cl)c(C)n1` was tested, and the “% Inhibition” value was -2% and the Z score was 0.26.
In the case of `CC[C@H](NCc1c(C)noc1C)c1c(C)noc1C`, the “% Inhibition” value is reported as 15% and the Z score is reported as -1.73.
In the case of `CCCC[C@H]1CN(c2ccccc2OC)C(=O)CN1C(=O)c1cc(C)n[nH]1`, the “% Inhibition” value is reported as -1% and the Z score is reported as 0.18.
For `Cc1ncsc1C(=O)N1CC[C@H](Oc2ncccn2)C1`, the “% Inhibition” value was -14% and the Z score was 2.67.
With `C[C@@H](C1CC1)N(C(=O)COc1c(C#N)oc2ccccc12)C1CC1` the “% Inhibition” value was -8% and the Z score was 1.53.
`O=C(NCc1cccc(Br)c1)c1ccc(Cl)c(-n2cnc3cccnc32)c1` was tested, and the “% Inhibition” value was 34% and the Z score was -0.68.
With `COC1(CO)CCN(Cc2cnn(CCF)c2)CC1` the “% Inhibition” value was -10% and the Z score was 1.7.
`NC(=NCCOc1ccc(Br)cc1)N1CCOCC1` was tested, and the “% Inhibition” value was 36% and the Z score was -4.82.
With `c1cncc(-c2nc3c(c(N4CCc5cncnc5C4)n2)CCC3)c1` the “% Inhibition” value was -3% and the Z score was 0.42.
For `CCC[C@H](C)NC(=O)c1ccccc1F`, the “% Inhibition” value was -3% and the Z score was 0.32.
For `Cc1ccccc1[C@H]1CN(C(=O)C2CCOCC2)C[C@@H]1C(=O)O`, the “% Inhibition” value was -3% and the Z score was 0.39.
`O=C1CC(C2CCCCN2C(=O)N2CCOCC2)CN1` (stereo not drawn) was tested, and the “% Inhibition” value was 3% and the Z score was -0.62.
With `O=C(NC1CC1)[C@H]1CCCN(C(=O)c2cnc3ccccc3n2)C1` the “% Inhibition” value was -34% and the Z score was 3.95.
In the case of `O=C(NC1(Cc2ccc(Cl)cc2)CC1)N1C[C@H]2CC[C@@H](C1)NC2`, the “% Inhibition” value is reported as 8% and the Z score is reported as -1.11.
In the case of `COc1cccc(NC(=O)C2[C@@H]3C=C[C@]4(O3)C(C(=O)NC3CCCCC3C)N(Cc3ccc(F)cc3)C(=O)[C@H]24)c1` (stereo partly drawn), the “% Inhibition” value is reported as 1% and the Z score is reported as -0.09.
For `Cc1cccc(Cl)c1NC(=O)N1CCS(=O)(=O)[C@@H](C)C1`, the “% Inhibition” value was -5% and the Z score was 0.54.
`CN1C[C@@H]2CC[C@H]1CN(Cc1ccc(S(C)(=O)=O)cc1)C2` was tested, and the “% Inhibition” value was 7% and the Z score was -1.57.
In the case of `O=C(NCc1ccncc1)[C@H]1CCCN(c2nnc3c(Cl)cccn23)C1`, the “% Inhibition” value is reported as -13% and the Z score is reported as 1.43.
With `CCCCN(C)S(=O)(=O)N1CCCCC1C(O)CC` (stereo not drawn) the “% Inhibition” value was -2% and the Z score was 0.33.
In the case of `Cc1cc(NC(=O)c2ccccn2)n(-c2nc3ccccc3o2)n1`, the “% Inhibition” value is reported as 89% and the Z score is reported as -10.15.
In the case of `Cc1ccc(CC[C@H](C)NC(=O)N2CC(=O)N(C3CC3)C2)o1`, the “% Inhibition” value is reported as -14% and the Z score is reported as 1.22.
In the case of `O=C(c1ccco1)N1CCc2c(c(CO)nn2Cc2ccccc2)C1`, the “% Inhibition” value is reported as -12% and the Z score is reported as 1.58.
In the case of `CN(C)Cc1ccc(-c2nc(N)nc3[nH]cnc23)cc1`, the “% Inhibition” value is reported as -2% and the Z score is reported as 0.23.
`CC(C)(C)C[C@H](NC(=O)N1CCC(C#N)CC1)C(F)(F)F` was tested, and the “% Inhibition” value was -4% and the Z score was 0.43.
In the case of `CC1Cc2cc(F)ccc2C(C)N1Cc1cccc(C(=O)N(C)C)c1` (stereo not drawn), the “% Inhibition” value is reported as -12% and the Z score is reported as 1.68.
In the case of `Cc1ccc(NC(=O)N2Cc3nc[nH]c3C[C@H]2c2nc(-c3ccc(Cl)cc3)no2)cc1`, the “% Inhibition” value is reported as 33% and the Z score is reported as -3.74.
With `C[C@H](NC(=O)CCc1nc2c([nH]1)c(=O)[nH]c(=O)n2C)C(C)(C)C` the “% Inhibition” value was 1% and the Z score was -0.11.
`Cc1oc(-c2ccccc2)nc1CN1CCC(O)(Cc2ccncc2)CC1` was tested, and the “% Inhibition” value was -14% and the Z score was 1.85.
For `Cc1nc2c(s1)CCC[C@@H]2NC(=O)c1ccc(CCC(C)(C)O)cc1`, the “% Inhibition” value was -12% and the Z score was 2.13.
For `Cc1ccc(S(=O)(=O)Cc2cccc(-c3nc(-c4ccc(N5CCOCC5)cc4)no3)c2)cc1`, the “% Inhibition” value was -11% and the Z score was 1.48.
With `CC(=O)NC1CCC(NC2CCC(C(F)(F)F)CC2)CC1` (stereo not drawn) the “% Inhibition” value was -3% and the Z score was 0.63.
`O=C1CN(C(=O)c2ccc(-c3ccccc3)[nH]c2=O)CCN1` was tested, and the “% Inhibition” value was -1% and the Z score was 0.1.
With `O=C(CCc1ccc(S(=O)(=O)N2CCCC2)cc1)Nc1ccc2c(c1)OCCCO2` the “% Inhibition” value was -7% and the Z score was 1.07.
In the case of `Cc1ccnc(Nc2ccc(N3CCNCC3)nn2)c1`, the “% Inhibition” value is reported as 56% and the Z score is reported as -6.55.
In the case of `O=C(N1CCCC1)N1CC[C@]2(O)CCN(c3nccc(C4CCCC4)n3)C[C@@H]2C1`, the “% Inhibition” value is reported as -15% and the Z score is reported as 2.26.
With `O=C(NCCC(c1ccccc1)c1ccccc1)c1ccc(S(=O)(=O)N2CCOCC2)cc1` the “% Inhibition” value was 3% and the Z score was -0.3.
`O=C(NC1CC(O)C(CO)C1)c1cc(-c2ccccc2)n[nH]1` (stereo not drawn) was tested, and the “% Inhibition” value was -13% and the Z score was 2.09.
In the case of `O=S(=O)(Cc1ccc(Cl)cc1)N1CCC[C@H](Oc2ccncn2)C1`, the “% Inhibition” value is reported as 8% and the Z score is reported as -1.11.
In the case of `CCOc1ccc(CNC(=O)C2=CCN(Cc3ccc(F)cc3)CC2)cc1`, the “% Inhibition” value is reported as -8% and the Z score is reported as 1.51.
For `CS(=O)(=O)c1cccc(S(=O)(=O)N(Cc2ccc(F)cc2)C2CCCCC2)c1`, the “% Inhibition” value was 0% and the Z score was -0.01.
In the case of `O=C(NCc1cccs1)N1CCN(C(=O)c2cnn3ccccc23)CC1`, the “% Inhibition” value is reported as -9% and the Z score is reported as 1.37.
With `Cc1noc(C)c1CC(=O)Nc1ncnc2[nH]c(C)c(C)c12` the “% Inhibition” value was -17% and the Z score was 1.6.
With `CCCc1nnc(C(=O)Nc2ccc(C(=O)NC3CCCCC3)cc2)s1` the “% Inhibition” value was -19% and the Z score was 2.27.
`CN(C)[C@H]1CN(C2Cc3ccccc3C2)C[C@@H]1O` was tested, and the “% Inhibition” value was 1% and the Z score was -0.19.
With `N#C[C@@H](C(=O)c1ccccc1C(=O)c1ccc(F)cc1)c1ccccn1` the “% Inhibition” value was -12% and the Z score was 1.09.
`Cc1csc(CNC(=O)c2cc(C)oc2C)n1` was tested, and the “% Inhibition” value was -10% and the Z score was 0.98.
In the case of `Cc1cc2c(cc1C)C(C(=O)N1CC(O)C3(CC3)C1)CO2` (stereo not drawn), the “% Inhibition” value is reported as -3% and the Z score is reported as 0.6.
`O=C(NCCn1cccn1)[C@@H]1CCCCc2n[nH]c(=O)n21` was tested, and the “% Inhibition” value was -12% and the Z score was 1.16.
`Cc1ncc(-c2nc(-c3ccccc3Br)no2)c(C)n1` was tested, and the “% Inhibition” value was 0% and the Z score was -0.03.
